Measured values: the supplement of paper PMC12632987
The full ranking holds about 4,500 sequences; the median of “median log2 fold change of GCK-ALFA target abundance (FLAG IP / Myc IP barcode read proportion)” is about 0.078, and the lowest 2% start at about -0.6. The list shows a part of the results.

B1: GBRAP_95_7025 (protein)
chain: EDDQLLVDSLTEVLDTYVDLGDEEAARAAAKRLVEALKENGILPLPKDISVASAKLILDVAEETLDLETLKKLAEQVIKATKDEEVKKYAEEVIKRKEKK
B2: GBRAP_53_6408 (protein)
chain: MKKKIEELVKKILEAAEEATKADEEKQLELAKKIGELLKKLKEAGMSDEELTKLVVEIAKKLKEAGASDKVLVTLAQATKDLGLDEATAEVTELIVEDLE
B3: GBRAP_26_5461 (protein)
chain: MEEVEREAEERVREIAARLPDPRYAAAVVAEFSTELLEAEERIEAGEDPEKAFREARDEFLAFVRELMREGGLSEEEIAAFEEELAAVFDELEKRVLELL
B4: GBRAP_160_4062 (protein)
chain: EEEKEELIKMVEEAEKLILEVLDEEGVEAAIIMADGEFGSIIMEAASNEKASDELVDELAKIRDDLVKKLEENKNASKEEQKKIVKEAAEKAKKAIKELY
B5: GBRAP_74_6517 (protein)
chain: MAELLAALRAAAAAGDARAVAALAREIVERGSLEAIEEAARILVAFVAAHRDTLTEEELELLADVLAEVADALMERGGDSEVILAVAQAAYELEKLVEAR
B6: GBRAP_78_6609 (protein)
chain: ETKEKIQELLDKAIEKLRKIRKEVPEVAEQANDAEVLAGTALYMVDTGSESKEEIQETVEEAIKEAEELLKELEGKKEEAKKLAEEALKLLKEALKLLKE
B7: GBRAP_52_6212 (protein)
chain: MEARLEALADAALAAVRAGRLDEARALLRELVETLDDEELERFGAVLVERAEAAAPEDFDAVFRLAELLEEELEAQGKDEVLADDLLNRVAAALYKRELA
B8: GBRAP_39_5690 (protein)
chain: EEEEENEDVVSYLEGIAAKYLYETGISFEEALKRAKEVLEKYAKEHPELKPLVEELIELAEEKGEEAKLVLIGIAVLIEEGTPDEEIKEKIEKAINYFKS
B9: GBRAP_184_5193 (protein)
chain: KVLEYTLKSENLEETKAKMEELKKKAKEEKADLYLIAEFKEVTKEMIEALMETLKEIKENGYSKNITVLLEGKLTEEEIDLAWELADKAGVKLTIALDEE
B10: GBRAP_153_3944 (protein)
chain: GEEEERLLQEALELLERIKAEGGPEELIRALARLIKQLTEEQRLEVAREMNSLSEELVHRIFRVLATEEGFSVEELLAMTTELNEEHEAAALEAIVEAQK
B11: GBRAP_160_4073 (protein)
chain: SEEVEKLIKEIREIAEETIEFLKESNEEEQIAIVRMMAGDILMLVFEAPFMSDEDEEEVDKILEEYVKKLEENKDWSMEEKEELIREMAEEVEKKVKEAA
B12: GBRAP_172_5003 (protein)
chain: GVVLVELDLRGLSRDEAVARAEAAVRAAAAAHDADIVLAIAADTQETVDAVTAAARATAAALGRRLTVVADAVTTEAGAATIRAAARAEAINLQYEQEEE
B13: GBRAP_35_5509 (protein)
chain: STDDTTAEMLIAGIEDAVLALPDVDVETASAIANSYAKAAEELAEELKNNLENLKKLYEAMEKLGEAVKKNFGDSELAKKTLEKIEKVAKKLKELAKKAE
B14: GBRAP_128_3527 (protein)
chain: SLEEARERAAEVVERIKASTPEEAAEITAEWLDWLKTLSDEEVAAAAEVLEERLPELTAEKLDVVADVFRERRGEFSPEVQEEIAGVEVAALNEAEELEE
B15: GBRAP_125_3031 (protein)
chain: GAEAAAAALATIARALGFSDDDVEELVALARAHGFKGAMIALALAEGNEELADLLEKLTEEEVAAVLAELAAYLAAHPDLTPEEVLAKLLEIAKAAVAKS
B16: GBRAP_160_4247 (protein)
chain: EERIERIERDFREEAEVTLEALLELPKSQWAAIARAMAGNLVQIVIEDPNATDELEEAVDEKADELVERLLAAADASPEELRRLLEEGVEEIVETYRKLI
B17: GBRAP_74_6533 (protein)
chain: MEEIIEEINKLIESGKPEDLIKAIELALEELDKETRKEILDKIAKKVLENIDKFSAEEVEKLLDKWVEVELELEEEEWSDIQLEALAALAAKAVEYEEKE
B18: GBRAP_78_6732 (protein)
chain: ELKKLLEEALKVASEAARLAVHRVSNEVIAEIVEALSDLEEALELVEEGGDKEEIKEHLERAAEHIKKAIELLPESAEEIRKLLEEALKLVKEALKEVEK
B19: GBRAP_160_4287 (protein)
chain: SEELEKLIKEIDEIVEEALEEMEGQSREERANIVRVAGGEVVLLLSENPNVSDETEDKVDEIWDEVADRILANPDLTDEEIRALLLEAREKVKKLLKEDM

These binders were tested against GABARAP, O95166 (assay: median log2 fold change of GCK-ALFA target abundance (FLAG IP / Myc IP barcode read proportion) (log2 ratio); each designed protein is fused to an ALFA-tag nanobody in HEK293 cells to bring the named protein to FLAG-tagged glucokinase (GCK); Myc marks an untargeted standard; higher = target protein stabilised (more abundant)). Conditions: target protein: 3xFLAG-MCP-GCK-ALFA reporter; HEK293 landing pad (RPLP).
Method in brief: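 The readout is target abundance, the per-binder median log2 ratio of FLAG to Myc barcode read proportions. It came from HEK293 landing-pad cells carrying a recombined ALFA-nanobody-fused binder library, induced with 2 μg mL^−1 doxycycline and transfected with a plasmid for a FLAG-tagged target and a Myc-tagged standard. After 48 h, lysates were immunoprecipitated with anti-FLAG and anti-Myc, and circular RNA barcodes were reverse transcribed, amplified and sequenced. Each barcode needed a proportion of at least 10^−7 in both replicates and each binder at least 3 barcodes per replicate, a pseudocount of 10^−6 was added, and the replicates were pooled.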

GABARAP, O95166, sequence (O95166 whole entry, the tested form may be a part): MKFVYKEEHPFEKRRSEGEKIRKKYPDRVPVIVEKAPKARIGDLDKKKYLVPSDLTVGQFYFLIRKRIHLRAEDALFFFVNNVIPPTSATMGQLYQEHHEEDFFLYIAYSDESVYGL

Binder	median log2 fold change
B1	0.257
B2	0.292
B3	0.12
B4	0.0878
B5	-0.222
B6	0.418
B7	0.0822
B8	0.102
B9	-0.131
B10	0.23
B11	-0.399
B12	0.259
B13	0.302
B14	0.0454
B15	-0.0155
B16	-0.554
B17	-0.132
B18	0.0328
B19	-0.142
